# Source: PMC4336329 (PLoS ONE, 2015)
# Screen size: about 310,000 compounds; about 2,200 (0.71%) showed an effect of 50% or more. The effect is printed as a negative number. The list shows a part of the results.
# Target: human ether-à-go-go-related gene (hERG) potassium channel (human, UniProt Q12809)
# Assay: primary screen, population patch clamp on CHO cells stably expressing hERG
# human ether-à-go-go-related gene (hERG) potassium channel, sequence (Q12809 whole entry, looked up): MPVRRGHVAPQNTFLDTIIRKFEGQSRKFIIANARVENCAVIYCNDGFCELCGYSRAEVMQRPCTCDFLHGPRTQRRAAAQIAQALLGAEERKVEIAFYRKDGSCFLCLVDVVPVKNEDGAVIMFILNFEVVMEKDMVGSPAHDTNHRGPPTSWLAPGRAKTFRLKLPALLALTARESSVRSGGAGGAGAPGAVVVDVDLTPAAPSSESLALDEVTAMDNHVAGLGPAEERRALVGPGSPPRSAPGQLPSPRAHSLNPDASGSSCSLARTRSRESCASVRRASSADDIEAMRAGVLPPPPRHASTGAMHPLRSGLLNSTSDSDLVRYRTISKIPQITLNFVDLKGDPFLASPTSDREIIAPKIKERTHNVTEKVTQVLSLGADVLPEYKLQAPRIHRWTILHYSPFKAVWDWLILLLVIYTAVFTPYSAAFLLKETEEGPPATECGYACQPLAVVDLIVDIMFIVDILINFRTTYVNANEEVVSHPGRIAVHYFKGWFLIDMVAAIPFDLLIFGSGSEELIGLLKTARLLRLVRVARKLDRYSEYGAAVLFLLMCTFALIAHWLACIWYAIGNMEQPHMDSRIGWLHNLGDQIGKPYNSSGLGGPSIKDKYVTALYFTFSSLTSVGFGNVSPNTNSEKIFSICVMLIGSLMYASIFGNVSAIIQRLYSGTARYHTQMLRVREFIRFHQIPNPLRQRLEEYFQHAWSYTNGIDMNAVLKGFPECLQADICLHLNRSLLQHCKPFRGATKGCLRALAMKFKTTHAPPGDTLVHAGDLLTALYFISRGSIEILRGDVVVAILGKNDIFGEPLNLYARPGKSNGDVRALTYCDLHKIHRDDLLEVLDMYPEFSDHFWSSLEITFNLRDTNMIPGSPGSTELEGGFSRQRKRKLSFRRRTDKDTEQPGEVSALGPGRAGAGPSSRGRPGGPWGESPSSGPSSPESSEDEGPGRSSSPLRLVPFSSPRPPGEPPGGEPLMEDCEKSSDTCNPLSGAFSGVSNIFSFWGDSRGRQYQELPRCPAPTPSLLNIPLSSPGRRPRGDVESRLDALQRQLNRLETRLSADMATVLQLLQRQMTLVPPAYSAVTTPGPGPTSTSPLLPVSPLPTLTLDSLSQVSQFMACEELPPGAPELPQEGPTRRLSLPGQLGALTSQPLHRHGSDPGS
row,SMILES,"hERG current change (%, negative = inhibition) at 1uM [%]"
1,CCCNC(=O)Cn1c(-c2ccc(F)cc2)cc(C(=O)OCC)c1C,7.7
2,O=C(CCc1ccccc1)NC(NC(=S)Nc1ccc(Cl)cc1)C(Cl)(Cl)Cl (stereo not shown),15.2
3,COc1ccccc1NC(=O)CC1CCCC1,11.5
4,COc1ccc(N(C(=O)c2ccccc2OC(C)=O)C(C)C2CC2)cc1 (stereo not shown),4.18
5,CCn1c(=NC(=O)C2COc3ccccc3O2)sc2c(OC)ccc(OC)c21 (stereo not shown),9.2
6,CCOC(=O)COc1nc(C)c(Br)c(OC)n1,8.04
7,CCCC(=O)Nc1cccc(Oc2nc(C)cc(C)c2C#N)c1,9.11
8,CN(C)CC(C)(C)CNC(=O)c1cc(Br)cc(Br)c1O,2.84
9,CC(C)C[C@@H](CO)N1CCN(CC(C)C)CCC1=O,1.1
10,CC(NC(=S)NCCc1ccccc1)C(c1cccs1)N1CCN(C)CC1 (stereo not shown),10.8
11,CCOC(=O)[C@@H]1[C@H]2COc3ccc(Br)cc3[C@@H]2N2C(=O)N(c3ccc(OC)cc3)C(=O)[C@]12C,12.9
12,O=C(Nc1ccccc1F)c1ccc2ncsc2c1,10.8
13,Cn1c(=O)[nH]c(=O)c2c1nc(NN)n2CCOc1ccccc1,17.7
14,Nc1nc(N)c(C=Nc2ccc(Br)cc2)c(Nc2ccc(Br)cc2)n1,16.6
15,CN(CC(=O)NCCc1ccccc1)S(=O)(=O)c1ccc(Br)cc1,-0.488
16,C=CCn1c(=O)c2ccccc2n2c(SCC(=O)/C(C#N)=C(\C)N)nnc12,-3.17
17,Cc1nc(C(=O)Nc2ccccc2)sc1C1(C)CC(c2cccc([N+](=O)[O-])c2)=NO1 (stereo not shown),8.71
18,O=C(NC1(C(F)(F)F)NC(=O)N(c2ccccc2F)C1=O)c1ccncc1 (stereo not shown),11
19,COC(=O)CS(=O)(=O)c1cc(Br)cc2c1N(C(C)=O)CC2,6.82
20,CCC(=O)Nc1ccc(C(=O)CSc2nc3ccc(C)cc3[nH]2)cc1,10
21,CCOc1ccc(S(=O)(=O)NCc2ccccn2)cc1NC(=O)c1ccccc1,1.91
22,CC(=O)Nc1cccc(NC(=O)c2ccco2)c1,7.34
23,COc1ccc(NC(=O)CN(C)C(=O)Cc2ccc3c(c2)CCC3)cc1,6.51
24,COc1ccc(N(C)C(=O)c2ccc3nc(-c4ccccc4)c(-c4ccccc4)nc3c2)cc1,1.6
25,Cc1c(C)n2c(SCC(=O)N3CCC(C)CC3)nnc2[nH]c1=O,17.5
